From PubChem BioAssay AID588855 (National Center for Advancing Translational Sciences (NCATS), 2011)
Where “and” joins values, the source holds several entries; their conditions need not be identical. Equal entries are not always repeated. Screen size: about 410,000 compounds; about 5,000 (1.2%) were called active. Inconclusive means that the source gave no clear call. Such entries were picked first, then a sample of the others. The call rests on the fitted dose curve; in most records, active means well fitted inhibition curve with a large enough effect; inconclusive means small, poorly fitted or top-dose-only effect; inactive means no such curve, though single readings can be large or run the other way. Potencies beside an inconclusive call are fits to weak or partial responses and may not hold up.

experiment: qHTS for Inhibitors of TGF-b; settings: HepG2 CAGA-GFP TGF-b/SMAD3 reporter, GFP fluorescence, 18 h, TGF-beta stimulated, 500 pg/mL final; series mostly up to 46.1 µM; further: nearly all actives have a fitted effect of over 65% in size
Summary of the method: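 HEPG2 CAGA-GFP, 1000 cells/well; 2 h settle, 37 C; cpd via pin tool; TGF-b 500 pg/mL final; 18 h, 37 C; GFP imaging ex488/em500-530; %Activity normalised to -TGF-b and +DMSO controls; CRC fit, curve class.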
Potency means the concentration at half of the fitted maximal effect; tags describe the fitted curve by direction and shape.

Row | Structure (SMILES) | Potency
1 | COc1cccc(-c2nc(CS(=O)CC(=O)NC(C)CCc3ccccc3)c(C)o2)c1 (stereo not given) | inconclusive: 35.5 µM [inhibitor, single point]
2 | O=[N+]([O-])c1ccc(S(=O)Cc2ccccc2)c([N+](=O)[O-])c1 (stereo not given) | active: 7.94 µM
3 | O=C(Nc1ccc(Cl)cc1Cl)c1ccc(Br)o1 | inactive
4 | CC(NC(=S)NCCc1ccccc1)C(c1cccs1)N1CCN(Cc2ccccc2)CC1 (stereo not given) | inconclusive: 22.4 µM [inhibitor, single point]
5 | O=C1SCCN1N=Cc1ccc([N+](=O)[O-])o1 | inconclusive: 35.5 µM [inhibitor, single point]
6 | COc1ccc(F)cc1-c1cc(C(=O)NCc2cccc(C(F)(F)F)c2)[nH]n1 | inconclusive: 35.5 µM [inhibitor, single point]
7 | CCCCNc1c(-c2ccc(OC)c(Sc3ccc(OC)cc3)c2)nc2cnccn12 | inconclusive: 25.1 µM [inhibitor, single point]
8 | N#CC(C#N)=C(Nc1ccc(F)cc1)SCc1cccc(Br)c1 | active: 1.58 µM
9 | Cc1ccc(NC(=O)C2(C)CCN2CCc2ccccc2)cc1 (stereo not given) | inconclusive: 35.5 µM [inhibitor, single point]
10 | FC(F)(F)c1cnc(Sc2nnc(-c3cccs3)n2CC2CCCO2)c(Cl)c1 (stereo not given) | inactive
11 | CN(C)CCNC(=S)Nc1ccccc1C(C)(C)C | inconclusive: 0.562 µM [inhibitor, full curve]
12 | Cc1cc(C(=O)COC(=O)c2cccc(S(=O)(=O)N(C)C)c2)c(C)n1CC1CCCO1 (stereo not given) | inactive
13 | O=C(CSc1ncccc1C(=O)Oc1ccccc1Cl)Nc1ccc(C(F)(F)F)cc1Cl | inconclusive: 3.16 µM [inhibitor, full curve]
14 | C/C(CCC(C)C)=N\Nc1cc(C)c2ccccc2n1 | inconclusive: 15.8 µM [inhibitor, single point]
15 | COc1ccccc1CN1CCC(CNC(=O)c2cnn(-c3ccccc3Cl)c2C2CCN(C(=O)OC(C)(C)C)CC2)CC1 | inconclusive: 11.2 µM [inhibitor, single point]
16 | Cc1ccc(NC(=O)C2CCN(S(=O)(=O)c3ccc4c(c3)NC(=O)C(C)S4)CC2)cc1C (stereo not given) | inconclusive: 22.4 µM [inhibitor, single point]
17 | CCC(=O)Nc1ccc(Cl)c(-c2nc3ccccc3[nH]2)c1 | inactive
18 | COc1ccc(-c2cc(C(F)(F)F)nc(SCC(=O)NCCCN3CCOCC3)n2)cc1 | inactive
19 | Cc1cc(NCCCn2ccnc2)n2ncc(-c3ccccc3)c2n1 | inconclusive: 6.31 µM [inhibitor, single point]
20 | Cc1c(C(=O)OC2CCCCC2)[nH]c2c1C(=O)CC(c1ccc(F)cc1)C2 (stereo not given) | inactive
21 | COc1cccc2c1C(=O)c1c(O)c3c(c(O)c1C2=O)C[C@@](O)(C(=O)CO)C[C@@H]3O[C@H]1C[C@H](N)[C@@H](O)[C@H](C)O1 | active: 3.16 µM
22 | COC(=O)CC1(CC(N)=O)SCCS1 | inconclusive: 35.5 µM [inhibitor, single point]

Row | Structure (SMILES) | Potency
23 | COc1ccc2cc(C3C(C#N)=C(N)OC(C)=C3C(C)=O)c(Cl)nc2c1 (stereo not given) | inconclusive: 35.5 µM [inhibitor, single point]
24 | Cc1c(C2(O)CCCCC2)[nH]c2cc(C(F)(F)F)ccc12 | inconclusive: 15.8 µM [inhibitor, single point]
25 | CCC1(c2ccccc2)SC(N)=NC1=O (stereo not given) | inconclusive: 15.8 µM [inhibitor, single point]
26 | COc1ccc(C(=O)NC(=S)Nc2cc(C)ccn2)cc1[N+](=O)[O-] | inconclusive: 35.5 µM [inhibitor, single point]
27 | CCCCOc1ccc(C(C)NC(=O)CN2C(=O)CSc3ccc(S(=O)(=O)N4CCOCC4)cc32)cc1 (stereo not given) | inconclusive: 10 µM [inhibitor, partial curve, poor fit]
28 | COc1cccc(-c2cc(C(F)(F)F)nc(NCCc3ccc(OC)c(OC)c3)n2)c1 | inconclusive: 14.1 µM [inhibitor, partial curve]
29 | COc1ccc2c(c1)OC(O)(C(F)(F)C(F)F)CC2=O (stereo not given) | inconclusive: 35.5 µM [inhibitor, partial curve, poor fit]
30 | COc1ccc(N2CCN(C(=O)CNC(=O)Cc3ccccc3)CC2)cc1 | inconclusive: 3.55 µM [inhibitor, partial curve, poor fit]
31 | Cc1ccc2oc(C(=O)N(C)CCC(O)c3ccccc3)c(C)c2c1 (stereo not given) | inconclusive: 6.31 µM [inhibitor, single point]
32 | Cc1cccc(N2CCN(C(=O)c3ccc(S(=O)(=O)N(C)c4ccccc4)cc3)CC2)c1C | active: 5.62 µM
33 | COc1ccc(NC(=O)c2ccco2)cc1NC(=O)c1cc(Cl)ccc1OC | inactive
34 | CCOc1cc(N2CCOCC2)c(OCC)cc1NC(=O)c1cc(C)cc(C)c1 | inactive
35 | O=C(c1ccc(F)cc1)C1CCN(C(=O)NCc2ccccc2)CC1 | inactive
36 | Cc1cc2n(n1)CCC(=O)N2Cc1ccc(C(=O)Nc2cc(Cl)ccc2C)cc1 | inconclusive: 35.5 µM [inhibitor, single point]
37 | c1ccc(CC2CCN(c3ncnc4sccc34)CC2)cc1 | inconclusive: 15.8 µM [inhibitor, partial curve, poor fit]
38 | CCN1CCN(Cc2ccc(NC(=O)c3ccc(C)c(/C=C/c4cnc(Nc5cc(N6CCNCC6)nc(C)n5)cn4)c3)cc2C(F)(F)F)CC1 | inconclusive: 3.16 µM [inhibitor, partial curve, poor fit]
39 | CCOC(=O)c1c(NC(=O)COC(=O)Cc2ccccc2[N+](=O)[O-])sc(C(=O)N(C)C)c1C | inactive
40 | Cc1cccc(CN2CCC(CNC(=O)Cn3ncc4c([nH]c5ccc(C)cc54)c3=O)CC2)c1 | inactive
41 | CC(=O)Nc1ccc(CN2CCC(Oc3ccc(C(=O)N4CCCC4)cc3)CC2)cc1 | inconclusive: 35.5 µM [inhibitor, single point]
42 | Cc1ccccc1CSc1ncc(Cl)c(C(=O)Nc2nc3ccc(F)cc3s2)n1 | inconclusive: 12.6 µM [inhibitor, partial curve, poor fit]
43 | CCc1ccc(CNC(=O)C2CCCN(c3nnc(C)c4c(C)n(-c5ccccc5)nc34)C2)cc1 (stereo not given) | inconclusive: 31.6 µM [inhibitor, single point] and inconclusive: 14.1 µM [inhibitor, partial curve, poor fit]
44 | Cc1ccccc1-c1cnc(C(O)c2ccc(F)cc2)[nH]1 (stereo not given) | inactive

Row | Structure (SMILES) | Potency
45 | Cc1c(N=C2C=C(Br)C(=O)C(Br)=C2)c(=O)n(-c2ccccc2)n1C | inactive
46 | CC(Sc1nc(C(C)(C)C)cc(-c2ccccc2)c1C#N)C(=O)Nc1ccccc1 (stereo not given) | inconclusive: 10 µM [inhibitor, partial curve, poor fit]
47 | O=C(NCCc1ccccc1)N1c2ccccc2Sc2ccccc21 | inconclusive: 35.5 µM [inhibitor, single point]
48 | O=c1c2cc3c(cc2nc2sc(Nc4cccc([N+](=O)[O-])c4)nn12)OCO3 | inactive
49 | C/C(=N\Nc1nc(C)cc(-c2ccccc2)n1)c1cccc(N)c1 | inconclusive: 7.08 µM [inhibitor, partial curve]
50 | O[C@H]1C[C@H](c2ccc(Cl)cc2)N(Cc2cccs2)C[C@@H]1n1cc(-c2ccc(F)cc2)nn1 | inconclusive: 35.5 µM [inhibitor, single point]
51 | COc1cccc2[nH]c3c(N4CCCC(C)C4)ncnc3c12 (stereo not given) | inconclusive: 22.4 µM [inhibitor, single point]
52 | Cc1cc2oc(=O)c(CC(=O)NCCc3ccccc3F)c(C)c2c2occ(C(C)(C)C)c12 | inconclusive: 11.2 µM [inhibitor, single point]
53 | O=S(=O)(Nc1cccc2c1CCCC2)c1ccc(Cl)cc1 | inconclusive: 15.8 µM [inhibitor, single point]
54 | Cc1ccc(S(=O)(=O)N2CCOCC2)cc1C(=O)NC1CCN(Cc2ccccc2)CC1 | inactive
55 | CC(=O)O[C@@H](C[C@@H](C)C1=C2C[C@H](O)C3[C@@]4(C)CCC(=O)C(C)(C)C4CC[C@]3(C)[C@@]2(C)CC1)[C@H]1OC1(C)C (stereo not given in full) | active: 11.2 µM
56 | CCCCN(C(=O)C1CCC(CNS(=O)(=O)c2cccc3nsnc23)CC1)c1ccccc1 (stereo not given) | inconclusive: 31.6 µM [inhibitor, single point]
57 | O=C(Nc1ccc(F)c(Cl)c1)c1cc(C2CCCCN2C(=O)c2ccccc2)on1 (stereo not given) | inconclusive: 15.8 µM [inhibitor, single point]
58 | CC1CCN(CC[S-])CC1.O.O.[Cl][Pt] | inconclusive: 12.6 µM [inhibitor, partial curve, poor fit]
59 | CNC(=O)C1CCC(Cn2c(=O)c3sccc3n(CC(=O)N3CCCC(C)C3)c2=O)CC1 (stereo not given) | inactive
60 | COCCCNC(=O)C1CCN(Cc2cc3ccccc3n2Cc2cccc(C)c2)CC1 | inconclusive: 17.8 µM [inhibitor, single point]
61 | CC(C)n1ncc2c(C(=O)Nc3cccc(S(=O)(=O)N(C)C)c3)cc(C3CC3)nc21 | inactive
62 | COc1cc(NC(=O)c2ccc3c(c2)OCCO3)ccc1NC(=O)c1ccccc1Cl | inactive
63 | CCCCCCSc1ccc(-c2nc3ccc(Cl)cn3c2NC2CCCCC2)cc1 | inconclusive: 3.16 µM [inhibitor, single point]
64 | Oc1ccc(Br)cc1C1C=C(c2ccc3c(c2)OCO3)NC(c2ccc(Br)cc2)N1 (stereo not given) | inconclusive: 31.6 µM [inhibitor, single point]
65 | O=C(CCC(=O)N1CCc2ccccc2C1)N1CCN(S(=O)(=O)c2ccccc2)CC1 | inactive
